Experimental data as given in the supplement of paper PMC7826260.
The list shows a part of the results. Viral Rep nickase domains cut single-stranded DNA in vitro for 1 h at 37 °C with 3 µM enzyme; only the middle of the 90-letter strands is printed. Numbers give uncut DNA relative to the enzyme-free pool, as log2; strong cutting gives strongly negative numbers. There is no active / inactive call. Reads are scaled to the total; uncut strands gain when others are lost, and binding without cutting may add a little.

Assays:
Assay in all cases: uncleaved DNA left, log2 of reads against the no-enzyme library (log2 ratio); higher = less cleavage (more negative = more Rep cleavage of the k-mer); sequences stand for … in CTCGTCCG…ACCGGAGA
[1] = tested on: T1, Rep nickase domain of Muscovy duck circovirus
T1 sequence (residues 1-111, tag not shown): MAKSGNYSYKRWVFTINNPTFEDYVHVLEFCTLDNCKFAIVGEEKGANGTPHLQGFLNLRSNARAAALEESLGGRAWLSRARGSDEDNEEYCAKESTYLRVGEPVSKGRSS
Experimental: (§1)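 A pool of 90-nt single-stranded DNAs with seven random bases just before the constant AC of the nick site (name = the seven bases) was cut by 3 µM recombinant His6-SUMO-tagged Rep nickase domain (300 nM DNA, 50 mM HEPES pH 8.0, 50 mM NaCl, 1 mM MnCl2, 1 h, 37 °C, three replicates). Uncut DNA was amplified and sequenced.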

[2] = tested on: T2, Rep nickase domain of banana bunchy top virus
T2 sequence (residues 1-94, tag not shown): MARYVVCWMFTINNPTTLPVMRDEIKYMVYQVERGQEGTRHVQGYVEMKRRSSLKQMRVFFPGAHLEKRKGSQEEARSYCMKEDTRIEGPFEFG
Experimental: as §1

[3] = tested on: T3, Rep nickase domain of cabbage leaf curl virus
T3 sequence (residues 1-116, tag not shown): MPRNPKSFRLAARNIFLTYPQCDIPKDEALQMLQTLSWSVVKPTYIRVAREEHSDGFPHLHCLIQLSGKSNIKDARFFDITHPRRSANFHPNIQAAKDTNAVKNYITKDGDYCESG
Experimental: as §1

[4] = tested on: T4, Rep nickase domain of chickpea chlorotic dwarf virus
T4 sequence (residues 1-124, tag not shown): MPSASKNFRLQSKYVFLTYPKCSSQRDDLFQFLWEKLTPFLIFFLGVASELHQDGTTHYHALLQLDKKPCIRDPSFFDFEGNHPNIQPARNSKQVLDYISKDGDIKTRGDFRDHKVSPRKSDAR
Experimental: as §1

[5] = tested on: T5, Rep nickase domain of faba bean necrotic yellows virus
T5 sequence (residues 1-98, tag not shown): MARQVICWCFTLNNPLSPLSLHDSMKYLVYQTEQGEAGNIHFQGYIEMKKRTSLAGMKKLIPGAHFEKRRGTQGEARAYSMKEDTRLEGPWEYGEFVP
Experimental: as §1

[6] = tested on: T6, Rep nickase domain of maize striate mosaic virus
T6 sequence (residues 1-117, tag not shown): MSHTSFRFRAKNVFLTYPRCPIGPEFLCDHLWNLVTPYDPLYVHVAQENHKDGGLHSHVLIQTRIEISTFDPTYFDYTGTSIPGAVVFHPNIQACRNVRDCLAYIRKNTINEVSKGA
Experimental: as §1

[7] = tested on: T7, Rep nickase domain of porcine circovirus 2
T7 sequence (residues 2-116, tag not shown): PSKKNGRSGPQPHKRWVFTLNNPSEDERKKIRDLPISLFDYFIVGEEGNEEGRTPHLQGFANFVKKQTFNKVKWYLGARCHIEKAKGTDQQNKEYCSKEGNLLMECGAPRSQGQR
Experimental: as §1

[8] = tested on: T8, Rep nickase domain of tomato yellow leaf curl virus
T8 sequence (residues 1-136, tag not shown): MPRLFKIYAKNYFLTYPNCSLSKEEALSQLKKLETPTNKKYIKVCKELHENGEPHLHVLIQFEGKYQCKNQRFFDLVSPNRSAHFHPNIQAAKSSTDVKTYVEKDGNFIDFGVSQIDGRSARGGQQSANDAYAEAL
Experimental: as §1

[9] = tested on: T9, Rep nickase domain of wheat dwarf virus
T9 sequence (residues 1-137, tag not shown): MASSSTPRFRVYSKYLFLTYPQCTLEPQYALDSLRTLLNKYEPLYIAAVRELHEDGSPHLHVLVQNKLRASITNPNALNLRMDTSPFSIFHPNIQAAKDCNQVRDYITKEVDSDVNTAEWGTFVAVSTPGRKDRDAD
Experimental: as §1

Sequence | uncleaved DNA left (log2) [1] | uncleaved DNA left (log2) [2] | uncleaved DNA left (log2) [3] | uncleaved DNA left (log2) [4] | uncleaved DNA left (log2) [5] | uncleaved DNA left (log2) [6] | uncleaved DNA left (log2) [7] | uncleaved DNA left (log2) [8] | uncleaved DNA left (log2) [9]
GCCAAAG | 0.0523 | 0.0853 | -0.47 | -0.241 | 0.116 | -0.956 | 0.257 | 0.126 | -0.0921
GGCCTCG | 0.0587 | 0.0782 | -0.125 | -0.107 | -0.0712 | -0.319 | 0.0352 | 0.0492 | 0.0146
CGTTTGC | -0.0435 | -0.0433 | -0.658 | -0.482 | -0.0694 | -1.11 | 0.156 | 0.0509 | -0.0405
TAACCGA | 0.0225 | 0.0388 | -0.511 | -1.95 | 0.088 | -0.998 | -0.135 | 0.021 | 0.0403
AGATCGA | 0.0158 | -0.0437 | -0.232 | -0.208 | -0.116 | -0.99 | 0.0291 | -0.0945 | 0.000948
ATCAGCG | -0.000352 | -0.02 | -0.401 | 1.09 | 0.0435 | 0.241 | 0.0716 | -0.0449 | -0.146
ATCAAGG | -0.00871 | 0.0299 | 0.33 | 1.23 | -0.0452 | 0.593 | 0.135 | -0.0476 | 0.0113
ACCTCGT | 0.0146 | -0.00843 | -0.521 | -0.758 | 0.0251 | -0.988 | -0.0141 | -0.141 | -0.165
GGTGAAA | 0.0961 | 0.146 | 0.617 | 1.36 | 0.084 | 2.09 | 0.376 | 0.195 | 0.225
GAAAGAG | 0.134 | 0.0784 | -0.234 | -0.124 | 0.116 | -0.681 | 0.249 | 0.118 | 0.0882
GGGCACT | 0.0748 | 0.171 | 0.909 | 2.02 | 0.042 | 2.34 | 0.244 | 0.0433 | 0.243
TCCGAAT | -0.163 | -0.129 | 0.207 | -0.0476 | 0.0598 | 0.165 | -0.0648 | -0.0875 | -0.0181
ACGTCTC | -0.00936 | 0.0149 | 0.0219 | -0.0188 | -0.0129 | -0.176 | -0.114 | -0.0446 | 0.0169
TGGTTGC | -0.0424 | -0.159 | -0.736 | -0.52 | 0.0239 | -0.746 | -0.00342 | 0.0311 | -0.256
CGGACTA | -0.0242 | 0.0132 | 0.681 | 1.71 | -0.107 | 2.08 | 0.0175 | -0.0756 | 0.119
